In all, about 310,000 compounds went through this assay and about 14,000 (4.5%) showed an effect of 50% or more. The effect is printed as a negative number. The list shows a part of the results.
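Also: peak tail current of the secondary pulse compared with the same well before compound.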

The target in the assay is human ether-à-go-go-related gene (hERG) potassium channel (human, UniProt Q12809). Kind of assay: primary screen, population patch clamp on CHO cells stably expressing hERG.
Chain of human ether-à-go-go-related gene (hERG) potassium channel (Q12809 whole entry, looked up): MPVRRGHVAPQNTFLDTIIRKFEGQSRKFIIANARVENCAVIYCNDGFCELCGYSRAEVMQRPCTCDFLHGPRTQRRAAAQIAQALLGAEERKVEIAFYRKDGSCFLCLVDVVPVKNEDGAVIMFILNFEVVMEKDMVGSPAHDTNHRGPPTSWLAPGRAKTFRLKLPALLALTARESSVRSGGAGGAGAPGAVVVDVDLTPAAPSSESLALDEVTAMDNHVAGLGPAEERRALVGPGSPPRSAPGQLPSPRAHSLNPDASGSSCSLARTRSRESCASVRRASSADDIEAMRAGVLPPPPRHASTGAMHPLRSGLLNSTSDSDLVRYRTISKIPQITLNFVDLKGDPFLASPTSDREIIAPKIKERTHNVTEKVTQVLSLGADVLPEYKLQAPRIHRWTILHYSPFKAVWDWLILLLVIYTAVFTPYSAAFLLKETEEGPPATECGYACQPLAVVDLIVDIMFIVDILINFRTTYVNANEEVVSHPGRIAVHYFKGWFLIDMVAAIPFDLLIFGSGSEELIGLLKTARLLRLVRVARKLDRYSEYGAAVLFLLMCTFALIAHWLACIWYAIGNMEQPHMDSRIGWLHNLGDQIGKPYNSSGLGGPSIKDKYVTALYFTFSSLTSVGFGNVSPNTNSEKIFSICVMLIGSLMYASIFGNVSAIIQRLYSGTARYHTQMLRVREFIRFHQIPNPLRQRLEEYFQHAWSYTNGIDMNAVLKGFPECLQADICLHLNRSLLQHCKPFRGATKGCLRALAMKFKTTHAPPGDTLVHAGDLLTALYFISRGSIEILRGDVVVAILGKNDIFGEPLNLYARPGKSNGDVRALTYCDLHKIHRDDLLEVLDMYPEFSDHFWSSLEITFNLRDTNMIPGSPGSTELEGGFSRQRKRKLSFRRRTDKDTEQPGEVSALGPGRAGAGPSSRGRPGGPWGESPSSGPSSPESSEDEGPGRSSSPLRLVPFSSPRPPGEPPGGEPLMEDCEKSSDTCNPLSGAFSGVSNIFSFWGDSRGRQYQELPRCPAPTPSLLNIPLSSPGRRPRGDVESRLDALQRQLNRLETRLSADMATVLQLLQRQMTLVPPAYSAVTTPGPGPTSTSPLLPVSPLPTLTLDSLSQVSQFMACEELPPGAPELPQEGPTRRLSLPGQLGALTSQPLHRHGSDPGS
In the case of `COC(=O)c1sc(NC(=S)NC(=O)c2cccc(C)c2)nc1C`, the “hERG current change (%, negative = inhibition) at 10uM” value was -4.16%.

Turning to `CS(=O)(=O)N(CC(=O)O)c1ccc2c(c1)OCO2`, the “hERG current change (%, negative = inhibition) at 10uM” value stood at 3.63%.

Regarding `COc1c2ccoc2nc2c(OC)cccc12`, the “hERG current change (%, negative = inhibition) at 10uM” value came to 2.8%.

On to `O=C(O)CC(C(=O)O)c1cn(Cc2ccccc2)c2ccccc12` (stereo not shown), for which the “hERG current change (%, negative = inhibition) at 10uM” value stood at 16.5%.

As to `CC(=O)N(Cc1ccc(Br)cc1)c1cccc(C)c1C`, the “hERG current change (%, negative = inhibition) at 10uM” value was 3.64%.

For the compound `O=C(NCCCN1CCc2ccccc2C1)C1CCN(S(=O)(=O)N2CCCC2)CC1`, the “hERG current change (%, negative = inhibition) at 10uM” value is on record as -2.78%.

`O=C(CCc1ccccc1)Nc1ccnn1C1CCN(Cc2ncc[nH]2)CC1`: the “hERG current change (%, negative = inhibition) at 10uM” value was 19%.

With `CC1CC(C)CN(S(=O)(=O)c2ccc(NC(=O)c3ccc(=O)[nH]c3)cc2)C1` (stereo not shown), the “hERG current change (%, negative = inhibition) at 10uM” value is recorded as -1.77%.

Turning to `O=C(NCc1ccc(F)cc1)C1CCN(S(=O)(=O)N2CCC3(CC2)OCCO3)CC1`, the “hERG current change (%, negative = inhibition) at 10uM” value came to 1.49%.

For the compound `O=C(c1cccc(S(=O)(=O)NCc2ccccc2)c1)N1CCCC1`, the “hERG current change (%, negative = inhibition) at 10uM” value amounted to 19.2%.

Turning to `O=C(Nc1ccc(NC(=O)C2CCCCC2)nc1)c1ccccn1`, the “hERG current change (%, negative = inhibition) at 10uM” value is 2.18%.

`COc1nc(NCCN2CCOCC2)nc(Nc2ccc([N+](=O)[O-])cc2)n1`: the “hERG current change (%, negative = inhibition) at 10uM” value is reported as -50.7%.

`CCCCn1c(=O)c(CCC(=O)OCC(=O)NCc2ccc(OC)c(OC)c2)nc2ccccc21`: the “hERG current change (%, negative = inhibition) at 10uM” value is reported as -19.8%.

Turning to `O=C(c1ccc(-c2cccc(Cl)c2)o1)N1CCN(c2ccc([N+](=O)[O-])cc2)CC1`, the “hERG current change (%, negative = inhibition) at 10uM” value is given as -58.9%.

Consider `Cc1n[nH]c(C)c1S(=O)(=O)N1CCCC(C(=O)NCC2COc3ccccc3O2)C1` (stereo not shown), for which the “hERG current change (%, negative = inhibition) at 10uM” value was 0.365%.

`O=C(Cn1ncc2c3ccccc3n(Cc3ccccc3F)c2c1=O)N1CCN(c2ccccn2)CC1`: the “hERG current change (%, negative = inhibition) at 10uM” value is listed as -7.01%.

`Cc1ccc(C(O)C(=O)c2ccco2)cc1` (stereo not shown): the “hERG current change (%, negative = inhibition) at 10uM” value turned out to be 18.4%.

Regarding `CN(C)C(=O)CCC(=O)N1CCCC(C(=O)c2ccc3c4c(cccc24)CC3)C1` (stereo not shown), the “hERG current change (%, negative = inhibition) at 10uM” value is given as -20.2%.

For `C[C@@H](O)C1NC(=O)[C@H](CCCCN)NC(=O)c2cc([N+](=O)[O-])cc(I)c2NCCC[C@@H](C(N)=O)NC1=O` (stereo partly shown), the “hERG current change (%, negative = inhibition) at 10uM” value worked out at 18%.

As for `CC(C)c1ccc(NC(=S)NCc2ccc3c(c2)OCO3)cc1`, the “hERG current change (%, negative = inhibition) at 10uM” value was -12.6%.

Consider `Cc1cc(OCc2cc(C(=O)N(Cc3nccn3C)C(C)C)no2)cc(C)c1Cl`, for which the “hERG current change (%, negative = inhibition) at 10uM” value is -58.5%.

Turning to `Cc1occc1C(=O)N1CCN(S(=O)(=O)c2ccccc2)CC1`, the “hERG current change (%, negative = inhibition) at 10uM” value is 8.32%.

In the case of `CNC(=O)CN(Cc1ccccc1)S(=O)(=O)c1ccccc1`, the “hERG current change (%, negative = inhibition) at 10uM” value is reported as -6.77%.

As for `CC1(C)SCC2C(=O)N3C(CSC3(C)C)C(=O)N21` (stereo not shown), the “hERG current change (%, negative = inhibition) at 10uM” value is reported as -3.42%.

As for `COc1ccccc1N(CC(O)COc1ccccc1)S(=O)(=O)c1ccccc1` (stereo not shown), the “hERG current change (%, negative = inhibition) at 10uM” value is reported as -10.3%.

Consider `O=C(COc1ccccc1)c1cn(CC(=O)N2CCCC2)c2ccccc12`, for which the “hERG current change (%, negative = inhibition) at 10uM” value is given as -0.488%.

Consider `NNC(=O)c1cnn(Cc2ccccc2)c1N`, for which the “hERG current change (%, negative = inhibition) at 10uM” value came out at 3.58%.

With `O=C(NCCCN1CCOCC1)c1cc(-c2ccc(F)cc2)nc2ccccc12`, the “hERG current change (%, negative = inhibition) at 10uM” value is on record as -27.5%.

In the case of `Cc1cc(N2C(=O)C(=O)/C(=C(/O)c3ccc(F)cc3)C2c2ccc(F)cc2)no1` (stereo not shown), the “hERG current change (%, negative = inhibition) at 10uM” value amounted to 23.9%.

As to `CC1=Nc2cc(C(=O)O)ccc2Sc2c(C)ccc(C)c21`, the “hERG current change (%, negative = inhibition) at 10uM” value is given as -7.58%.

`Cc1cnc(C(=O)OCC(=O)Nc2oc(-c3ccccc3)c(-c3ccccc3)c2C#N)cn1`: the “hERG current change (%, negative = inhibition) at 10uM” value is reported as -8.22%.

On to `COc1ccc(CN2C(=O)c3cccnc3C2=O)cc1S(=O)(=O)N1CCCC(C)C1` (stereo not shown), for which the “hERG current change (%, negative = inhibition) at 10uM” value is -0.978%.

Take `Cc1ccnc(N2CCCC(C(=O)Nc3ccc(C)c(C)c3)C2)n1` (stereo not shown): the “hERG current change (%, negative = inhibition) at 10uM” value is reported as 6.45%.

As to `COc1cc(Cl)c(C)cc1NC(=O)CSc1ccc(C)cc1`, the “hERG current change (%, negative = inhibition) at 10uM” value is recorded as 12.7%.

With `O=C(COc1ccc(Cl)cc1)Nc1ccc2oc(=O)ccc2c1`, the “hERG current change (%, negative = inhibition) at 10uM” value was 3.7%.

As to `C/C(CC(=O)N1CCCC1)=N\NC(=O)c1cc2ccccc2cc1O`, the “hERG current change (%, negative = inhibition) at 10uM” value was determined as 4.98%.

Consider `O=C(O)c1cccc(CN2C(=O)S/C(=C/c3cccc([N+](=O)[O-])c3)C2=O)c1`, for which the “hERG current change (%, negative = inhibition) at 10uM” value is 10.3%.

On to `COc1ccc(OC)c(C2N(c3ccc(Cl)cc3)C(=O)C3CCCN32)c1` (stereo not shown), for which the “hERG current change (%, negative = inhibition) at 10uM” value is reported as 19.3%.

As for `Cc1cc(C)nc(/N=C2\NC(=O)CC(C(=O)O)N2CCc2c[nH]c3ccccc23)n1` (stereo not shown), the “hERG current change (%, negative = inhibition) at 10uM” value is recorded as 12.8%.

As for `CC(C)(C)c1[nH]nc2c1C(c1ccc(OC(=O)c3ccco3)cc1)C(C#N)=C(N)O2` (stereo not shown), the “hERG current change (%, negative = inhibition) at 10uM” value turned out to be 11.1%.

`CC1(C)Cc2cccc(OCC(=O)N3CCN(S(=O)(=O)c4ccc(F)cc4)CC3)c2O1`: the “hERG current change (%, negative = inhibition) at 10uM” value was -21.6%.

With `Cc1csc2nc(CN3CCN(CC(=O)N(C)C)CC3)cc(=O)n12`, the “hERG current change (%, negative = inhibition) at 10uM” value is 10%.

Turning to `O=C(Nc1ccc(Cl)c(C(F)(F)F)c1)NC1CC2CCCC(C1)N2C1CC1` (stereo not shown), the “hERG current change (%, negative = inhibition) at 10uM” value is -10.1%.

The values above are taken from paper PMC4336329 (PLoS ONE, 2015).
